The other results are listed elsewhere or left out.
Experiments:
Test in all cases: glycan array binding signal (z-score within array); higher = stronger binding
Conditions in all cases: glycan notation: IUPAC condensed, linker removed
Fuc(a1-3)GlcNAc = molecular target: Fuc(a1-3)GlcNAc
In short: (§1)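 Negative Z-scores can be read as non-binding. The Z-score is calculated within each array and then averaged across arrays of one protein sequence at different concentrations or buffers and across linkers. Arrays, 3228 in all, were curated from the Consortium for Functional Glycomics database and kept only where the protein sequence was available.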

[1] = molecular target: Fuc(a1-3)[Gal(b1-4)]Glc6S
In short: as §1

[2] = molecular target: Fuc(a1-3)[Gal(b1-4)]GlcNAc
In short: as §1

[3] = molecular target: Fuc(a1-3)[Gal(b1-4)]GlcNAc(b1-2)Man
In short: as §1

[4] = molecular target: Fuc(a1-3)[Gal(b1-4)]GlcNAc(b1-2)Man(a1-3)[Fuc(a1-3)[Gal(b1-4)]GlcNAc(b1-2)Man(a1-6)]Man(b1-4)GlcNAc(b1-4)GlcNAc
In short: as §1

[5] = molecular target: Fuc(a1-3)[Gal(b1-4)]GlcNAc(b1-2)Man(a1-3)[Fuc(a1-3)[Gal(b1-4)]GlcNAc(b1-2)Man(a1-6)]Man(b1-4)GlcNAc(b1-4)[Fuc(a1-6)]GlcNAc
In short: as §1

[6] = molecular target: Fuc(a1-3)[Gal(b1-4)]GlcNAc(b1-3)Gal(b1-3)[Fuc(a1-4)]GlcNAc
In short: as §1

[7] = molecular target: Fuc(a1-3)[Gal(b1-4)]GlcNAc(b1-3)Gal(b1-4)[Fuc(a1-3)]GlcNAc
In short: as §1

[8] = molecular target: Fuc(a1-3)[Gal(b1-4)]GlcNAc(b1-3)Gal(b1-4)[Fuc(a1-3)]GlcNAc(b1-3)Gal(b1-4)[Fuc(a1-3)]GlcNAc
In short: as §1

[9] = molecular target: Fuc(a1-3)[Gal(b1-4)]GlcNAc(b1-3)GalNAc
In short: as §1

[10] = molecular target: Fuc(a1-3)[Gal(b1-4)]GlcNAc(b1-6)GalNAc
In short: as §1

[11] = molecular target: Fuc(a1-3)[Gal(b1-4)]GlcNAc(b1-6)[Gal(b1-3)GlcNAc(b1-3)]Gal(b1-4)Glc
In short: as §1

[12] = molecular target: Fuc(a1-3)[Gal(b1-4)]GlcNAc6S
In short: as §1

[13] = molecular target: Fuc(a1-3)[Gal3S(b1-4)]Glc
In short: as §1

[14] = molecular target: Fuc(a1-3)[Gal3S(b1-4)]GlcNAc
In short: as §1

[15] = molecular target: Fuc(a1-3)[Gal3S(b1-4)]GlcNAc6S
In short: as §1

[16] = molecular target: Fuc(a1-3)[GalNAc(b1-4)]GlcNAc
In short: as §1

[17] = molecular target: Fuc(a1-3)[GalNAc(b1-4)]GlcNAc6S
In short: as §1

Fuc(a1-4)GlcNAc = molecular target: Fuc(a1-4)GlcNAc
In short: as §1

Fuc(b1-3)GlcNAc = molecular target: Fuc(b1-3)GlcNAc
In short: as §1

Gal(a1-2)Gal = molecular target: Gal(a1-2)Gal
In short: as §1

Gal(a1-3)Gal = molecular target: Gal(a1-3)Gal
In short: as §1

Gal(a1-3)Gal(b1-3)GlcNAc = molecular target: Gal(a1-3)Gal(b1-3)GlcNAc
In short: as §1

[18] = molecular target: Gal(a1-3)Gal(b1-3)GlcNAc(b1-2)Man
In short: as §1

[19] = molecular target: Gal(a1-3)Gal(b1-3)GlcNAc(b1-2)Man(a1-3)[Gal(a1-3)Gal(b1-3)GlcNAc(b1-2)Man(a1-6)]Man(b1-4)GlcNAc(b1-4)GlcNAc
In short: as §1

[20] = molecular target: Gal(a1-3)Gal(b1-3)GlcNAc(b1-3)GalNAc
In short: as §1

[21] = molecular target: Gal(a1-3)Gal(b1-3)GlcNAc(b1-6)GalNAc
In short: as §1

[22] = molecular target: Gal(a1-3)Gal(b1-3)[Fuc(a1-4)]GlcNAc(b1-2)Man(a1-3)[Gal(a1-3)Gal(b1-3)[Fuc(a1-4)]GlcNAc(b1-2)Man(a1-6)]Man(b1-4)GlcNAc(b1-4)GlcNAc
In short: as §1

Gal(a1-3)Gal(b1-4)Glc = molecular target: Gal(a1-3)Gal(b1-4)Glc
In short: as §1

Gal(a1-3)Gal(b1-4)GlcNAc = molecular target: Gal(a1-3)Gal(b1-4)GlcNAc
In short: as §1

B1: Nc3LysM (protein)
chain: QFTVPPDTTAEPNTIKTCTWWHVAGSGDSCTSIASTYGITSEQFARWDMETTDSPKNPSVATACKLTVGNSYCIENNFGQDDPPTPSISSSTLIGTATTSTTASTTTGNGISTPTPIQEGMETATTTTSSGNGITTPTPTQAGMETVGNCDRFHLVKSGDQCGTIASTYGITLANFYSWNPAVGTSCQSLWLDTYVCVRTIGFVPPKTTTTTTKKPTSTTSAGGVATPTPTQPGMETVSGCKKFHKGRGNVSTVASGDQCGTIATRYGISLANFYSWNPAVGSSCQTLWLDYYVCVGR
Fuc(a1-3)GlcNAc
  glycan array binding signal (z-score): -0.086
[1]
  glycan array binding signal (z-score): 0.188
[2]
  glycan array binding signal (z-score): -0.119
[3]
  glycan array binding signal (z-score): -0.252
[4]
  glycan array binding signal (z-score): -0.153
[5]
  glycan array binding signal (z-score): -0.105
[6]
  glycan array binding signal (z-score): -0.113
[7]
  glycan array binding signal (z-score): -0.173
[8]
  glycan array binding signal (z-score): 0.033
[9]
  glycan array binding signal (z-score): -0.152
[10]
  glycan array binding signal (z-score): -0.014
[11]
  glycan array binding signal (z-score): -0.151
[12]
  glycan array binding signal (z-score): 0.031
[13]
  glycan array binding signal (z-score): -0.089
[14]
  glycan array binding signal (z-score): 0.022
[15]
  glycan array binding signal (z-score): -0.105
[16]
  glycan array binding signal (z-score): -0.127
[17]
  glycan array binding signal (z-score): -0.225
Fuc(a1-4)GlcNAc
  glycan array binding signal (z-score): -0.126
Fuc(b1-3)GlcNAc
  glycan array binding signal (z-score): -0.013
Gal(a1-2)Gal
  glycan array binding signal (z-score): 0.243
Gal(a1-3)Gal
  glycan array binding signal (z-score): -0.248
Gal(a1-3)Gal(b1-3)GlcNAc
  glycan array binding signal (z-score): -0.232
[18]
  glycan array binding signal (z-score): -0.203
[19]
  glycan array binding signal (z-score): 0.295
[20]
  glycan array binding signal (z-score): -0.04
[21]
  glycan array binding signal (z-score): -0.073
[22]
  glycan array binding signal (z-score): 0.161
Gal(a1-3)Gal(b1-4)Glc
  glycan array binding signal (z-score): -0.179
Gal(a1-3)Gal(b1-4)GlcNAc
  glycan array binding signal (z-score): 0.019

— the supplement of paper PMC8728848
